Reference: PubChem BioAssay AID1159614 (National Center for Advancing Translational Sciences (NCATS), 2016)
Out of some 45,000 compounds screened, about 65 (0.1%) were called active. This list was built around the results that the source calls inconclusive (neither active nor inactive); the mix of calls is not that of the screen. Calls come from the whole dose curve; as a rule, active = well fitted activation curve with a large enough effect; inconclusive = small, poorly fitted or top-dose-only effect; inactive = no such curve, though single readings can be large or run the other way. A potency beside an inconclusive call is a rough fit, not a confirmed value.

Target: Galactocerebrosidase (Homo sapiens) (UniProt P54803)
Sequence of UniProt P54803 (P54803 whole entry, looked up): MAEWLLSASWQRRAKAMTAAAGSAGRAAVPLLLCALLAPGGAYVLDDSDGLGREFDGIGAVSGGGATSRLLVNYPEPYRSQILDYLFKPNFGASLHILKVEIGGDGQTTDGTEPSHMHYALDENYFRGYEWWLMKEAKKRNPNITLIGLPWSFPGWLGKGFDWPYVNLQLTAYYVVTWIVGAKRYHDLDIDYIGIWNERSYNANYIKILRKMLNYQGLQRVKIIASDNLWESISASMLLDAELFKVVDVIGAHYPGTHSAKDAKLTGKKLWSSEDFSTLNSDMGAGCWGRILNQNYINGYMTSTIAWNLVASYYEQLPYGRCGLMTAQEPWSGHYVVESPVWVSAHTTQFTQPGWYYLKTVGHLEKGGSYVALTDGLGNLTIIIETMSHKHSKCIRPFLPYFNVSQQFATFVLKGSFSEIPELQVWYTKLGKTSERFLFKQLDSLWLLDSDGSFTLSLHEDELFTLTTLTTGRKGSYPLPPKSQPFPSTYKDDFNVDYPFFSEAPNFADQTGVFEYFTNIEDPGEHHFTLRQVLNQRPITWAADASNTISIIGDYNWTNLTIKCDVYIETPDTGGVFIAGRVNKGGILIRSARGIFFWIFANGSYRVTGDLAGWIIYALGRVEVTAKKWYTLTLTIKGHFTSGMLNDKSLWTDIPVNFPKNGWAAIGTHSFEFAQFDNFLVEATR
Assay: A Novel Cell-Based Assay to Identify Small Molecules for B -Galactocerebrosidase; note: nearly all actives have a fitted effect of over 65% in size
Details: 145M-Twi-hGALC-G270D cells (Twitcher mouse brain line with human GALC G270D), HMU-beta-Gal fluorescence, 48 h; series mostly up to 57.5 µM
Procedure, shortened: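 Fluorescence readout: HMU-β-gal cleavage by mutant GALC (0.1 mM final, citrate/phosphate pH 5.2 with 1 mg/mL taurocholate), stopped with carbonate/bicarbonate plus Triton X-100. Cells: murine Twitcher 145M-Twi expressing human G270D GALC; qHTS for activators.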
Potency is the fitted concentration of half-maximal effect; tags give direction and shape of the fitted curve.

Row | Compound | Potency
1 | O=S(=O)(Nc1nc2n(n1)C(c1ccc(F)cc1)C=C(c1ccccc1)N2)c1ccc(Cl)cc1 (configuration not stated) | inactive
2 | Cc1ccc(C)c(NC(=O)N(C)CCc2c(C)nn(C)c2C)c1 | inactive
3 | CCCCN(C)CC(O)Cn1cc(/C=C/C(=O)c2ccc(OC)c(OC)c2)c2ccccc21 (configuration not stated) | active: 31.6 µM
4 | CC1=C(C(N)=O)C(c2ccc(F)cc2)n2nc(-c3ccccc3Cl)nc2N1 (configuration not stated) | inconclusive: 39.8 µM [activator, single point]
5 | O=c1cc2nc(-c3ccccc3)nc(SCCOc3ccc(Cl)cc3)n2[nH]1 | inconclusive: 1 µM [activator, partial curve]
6 | CCN(C(=O)c1cn(C)c(=O)c2ccccc12)c1cccc(C)c1 | inconclusive: 39.8 µM [activator, partial curve, poor fit]
7 | CN1CCN(CCC(=O)N2c3ccccc3Sc3ccc(C(F)(F)F)cc32)CC1 | inactive
8 | CCCc1cc(=O)oc2c3c(ccc12)OCN(Cc1ccccc1OC)C3 | inconclusive: 39.8 µM [activator, single point]
9 | CCOc1ccc(C(=O)/C=C/c2cn(CC(O)CN3CCc4ccccc43)c3ccccc23)cc1 (configuration not stated) | inconclusive: 25.1 µM [activator, single point]
10 | Cc1ccc(-n2nc(-c3ccccc3)c3cnc4cc5c(cc4c32)OCO5)cc1C | inconclusive: 1 µM [activator, partial curve, poor fit]
11 | O=C(CCS(=O)(=O)c1ccccc1)N(Cc1cccnc1)c1nc2ccc(F)cc2s1 | inactive
12 | COc1cc2cc(CNc3ccccc3)c(=O)n(CC(=O)Nc3ccc(C)c(Cl)c3)c2cc1OC | inconclusive: 39.8 µM [activator, single point]
13 | COc1ccc(CCNC(=O)c2cccc(Nc3nc4ccccc4nc3-n3nc(C)cc3C)c2)cc1OC | inconclusive: 22.4 µM [activator, single point]
14 | COc1cccc(C(=O)Nc2cccc(-c3nc4ncccn4c3C)c2)c1 | inconclusive: 20 µM [activator, single point]
15 | Cc1nn(C(C)C(=O)NC2CCC(C)CC2)c(=O)c2c1sc1ccccc12 (configuration not stated) | inactive
16 | CC(C)c1ccc(C2=CC(c3cccc(Cl)c3)n3ncnc3N2)cc1 (configuration not stated) | inactive
17 | COc1cccc(CNC(=O)C(=O)Nc2ccc3nc4n(c(=O)c3c2)CCCCC4)c1 | inactive
18 | CC(=O)c1ccc(N2CCN(c3ncnc4onc(C)c34)CC2)cc1 | inactive
19 | COc1ccc(-n2c(=O)c3c(c4cc(OC)ccc4n3C)n(Cc3ccc(F)cc3Cl)c2=O)cc1 | inconclusive: 0.199 µM [activator, full curve, poor fit]
20 | Cc1ccc(CSc2nc3ccc(NC(=O)COc4ccc(F)cc4)cc3s2)cc1 | inactive
21 | CCCOc1cccc(C(=O)Nc2ccc(-c3nc4ccccc4s3)c(Cl)c2)c1 | inactive

Row | Compound | Potency
22 | CCc1ccc(NC(=O)CSc2nc(-c3ccccc3)c(C#N)c(=O)[nH]2)cc1 | inactive
23 | Cc1ccc(C)c(N2CCN(C(=O)CCC(=O)Nc3ccc4nc(N5CCCCC5)cc(C)c4c3)CC2)c1 | inconclusive: 20 µM [activator, single point]
24 | CCOC(=O)c1ccc(N2C(=O)c3[nH]nc(-c4ccc(C)cc4)c3C2c2ccc(O)c(OCC)c2)cc1 (configuration not stated) | inactive
25 | Cc1nnc(C)n1-c1ccc(C(=O)Nc2cccc(Br)c2)cc1 | inconclusive: 39.8 µM [activator, single point]
26 | N#Cc1nc(/C=C/c2ccc(F)cc2)oc1NCc1ccc(F)cc1 | inconclusive: 10 µM [activator, partial curve]
27 | COc1ccc(N2CCN(S(=O)(=O)c3ccc(-c4cnc(C5CC5)o4)cc3)CC2)cc1 | inactive
28 | Cc1ccc2c(CC(=O)Nc3ccc(S(=O)(=O)N4CCCCC4)cc3)coc2c1C | inconclusive: 39.8 µM [activator, single point]
29 | COc1ccc(CNC(=O)c2cc3c(-c4ccc(Cl)cc4)nn(C)c3s2)cc1 | inactive
30 | COc1ccc(-c2cc3ccc(O)c(CN4CCCC(C)C4)c3oc2=O)cc1OC (configuration not stated) | active: 22.4 µM
31 | CC(=O)OCC(=O)[C@@]12N=C(C)O[C@@H]1C[C@H]1[C@@H]3CCC4=CC(=O)C=C[C@]4(C)[C@H]3[C@@H](O)C[C@@]12C | inactive
32 | O=C(c1ccc(Br)cc1)N1CCN(CCc2ccncc2)CC1 | inconclusive: 1.78 µM [activator, full curve]
33 | Cc1ccc(-c2nc3ccccc3n3c(-c4ccccc4)c4c(=O)n(C)c(=O)n(C)c4c23)cc1 | inconclusive: 35.5 µM [activator, single point]
34 | CCOc1cccc(CC(=O)Nc2ccc3nc(N4CCCCC4)cc(C)c3c2)c1OCC | inconclusive: 31.6 µM [activator, single point]
35 | Cc1cc(Nc2ccc(F)cc2)n2c(nc3ccccc32)c1C#N | inconclusive: 22.4 µM [activator, partial curve]
36 | COc1ccc(NCc2cc3cc4c(cc3n(CC(=O)Nc3cc(C)cc(C)c3)c2=O)OCO4)cc1 | inconclusive: 35.5 µM [activator, single point]
37 | COc1ccc(-c2nc3c(c(SCC(=O)N4CCCCC4)n2)Cc2cc(Cl)ccc2O3)cc1 | inconclusive: 39.8 µM [activator, single point]
38 | Cc1cccc(Cc2c(C)nc3c(-c4ccccc4)c(C)[nH]n3c2=O)c1 | inconclusive: 39.8 µM [activator, single point]
39 | NC(=O)c1c(NC(=O)CS(=O)(=O)c2ccc(Cl)cc2)sc2c1CCCCC2 | inconclusive: 39.8 µM [activator, single point]
40 | CCc1ccc(NC(=O)CSC2=Nc3ccccc3C3=NC(CCC(=O)NCc4ccccc4)C(=O)N23)cc1 (configuration not stated) | inconclusive: 39.8 µM [activator, single point]
41 | Cc1cccc(NC(=O)CSc2nnc3[nH]c(=O)cc(-c4ccccc4)n23)c1C | inconclusive: 3.98 µM [activator, partial curve]
42 | Cn1c(C(=O)Nc2cccc(C(F)(F)F)c2)cc2c(=O)n3ccccc3nc21 | inconclusive: 39.8 µM [activator, single point]
